Experimental findings from publication PMC12820563, “FoxP3 forms a head-to-head dimer in vivo and stabilizes its multimerization on adjacent microsatellites” are described below.

Some of the results follow.

The test addresses T1, MBP-FoxP1dN (Mus musculus, UniProt P58462 326-579).
T1 sequence: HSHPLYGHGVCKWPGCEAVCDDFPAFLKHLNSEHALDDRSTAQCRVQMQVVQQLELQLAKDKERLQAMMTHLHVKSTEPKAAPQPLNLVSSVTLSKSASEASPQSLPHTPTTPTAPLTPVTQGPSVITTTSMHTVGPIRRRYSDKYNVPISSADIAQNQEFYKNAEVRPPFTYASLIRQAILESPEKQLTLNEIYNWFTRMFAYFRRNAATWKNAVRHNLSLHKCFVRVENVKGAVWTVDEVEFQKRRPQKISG
Put plainly: PD-seq (MBP pull-down with sequencing); 20 mM Tris-HCl pH 7.5, 100 mM NaCl, 1.5 mM MgCl2, 0.4 uM protein, 0.1 uM dsDNA library, 30 min, room temperature, amylose pull-down; high values mean tight binding. Particulars: protein: recombinant; tags: His6-MBP; chain copies: 2; dsDNA, one strand shown. The method in brief:
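Binding is the reads-per-million enrichment of pull-down relative to input, pooled across replicates. For this, 0.4 µM His6-MBP-tagged mouse FoxP3 or FoxP1 fragment lacking the N-terminus, made in E. coli, was incubated with 0.1 µM Klenow-filled double-stranded degenerate DNA library for 30 min at room temperature in Tris pH 7.5 buffer with NaCl and MgCl2. Complexes bound to amylose resin were washed three times before proteinase K released the DNA for PCR barcoding and Illumina sequencing.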
On to “GATGATTGTTCTCCCAGCTGATGAATTACTGTAGTCGAGTAAACAAATTTTCCTAATCTTTCTGTTCAAGCGCCATCTAC”, for which the binding signal was 1.18 RPM ratio (pull-down/input).
For “GATGATTGTTCTCCCAGCTGATGAATTATATCCCTCGAGTAAACAAATTTTCCTAATCTTTCTGTTCAAGCGCCATCTAC” the value was 0.962 RPM ratio (pull-down/input).
With “GATGATTGTTCTCCCAGCTGATGAATTCTACTTTTCGAGTAAACAAATTTTCCTAATCTTTCTGTTCAAGCGCCATCTAC”, the binding signal is 0.956 RPM ratio (pull-down/input).
“GATGATTGTTCTCCCAGCTGATGAATTGACAAGGTCGAGTAAACAAATTTTCCTAATCTTTCTGTTCAAGCGCCATCTAC”: the binding signal is 1.01 RPM ratio (pull-down/input).
With “GATGATTGTTCTCCCAGCTGATGAATTCTCCGAATCGAGTAAACAAATTTTCCTAATCTTTCTGTTCAAGCGCCATCTAC”, the binding signal is 0.942 RPM ratio (pull-down/input).
For “GATGATTGTTCTCCCAGCTGATGAATTATTAGATTCGAGTAAACAAATTTTCCTAATCTTTCTGTTCAAGCGCCATCTAC” the value was 1.08 RPM ratio (pull-down/input); for “GATGATTGTTCTCCCAGCTGATGAATTATAAACTTCGAGTAAACAAATTTTCCTAATCTTTCTGTTCAAGCGCCATCTAC”, 1.11 RPM ratio (pull-down/input); for “GATGATTGTTCTCCCAGCTGATGAATTCGTCCCTTCGAGTAAACAAATTTTCCTAATCTTTCTGTTCAAGCGCCATCTAC”, 0.82 RPM ratio (pull-down/input).
Then “GATGATTGTTCTCCCAGCTGATGAATTCGTAAAGTCGAGTAAACAAATTTTCCTAATCTTTCTGTTCAAGCGCCATCTAC”, with 0.923 RPM ratio (pull-down/input); and “GATGATTGTTCTCCCAGCTGATGAATTGGCTGTCTCGAGTAAACAAATTTTCCTAATCTTTCTGTTCAAGCGCCATCTAC”, with 0.789 RPM ratio (pull-down/input); and “GATGATTGTTCTCCCAGCTGATGAATTTCCTTCCTCGAGTAAACAAATTTTCCTAATCTTTCTGTTCAAGCGCCATCTAC”, with 0.802 RPM ratio (pull-down/input).
For “GATGATTGTTCTCCCAGCTGATGAATTTAGTTAATCGAGTAAACAAATTTTCCTAATCTTTCTGTTCAAGCGCCATCTAC” the value was 1.03 RPM ratio (pull-down/input); for “GATGATTGTTCTCCCAGCTGATGAATTATAGGTGTCGAGTAAACAAATTTTCCTAATCTTTCTGTTCAAGCGCCATCTAC”, 0.94 RPM ratio (pull-down/input); for “GATGATTGTTCTCCCAGCTGATGAATTACCTCGGTCGAGTAAACAAATTTTCCTAATCTTTCTGTTCAAGCGCCATCTAC”, 0.889 RPM ratio (pull-down/input).
In the case of “GATGATTGTTCTCCCAGCTGATGAATTCTTCCCATCGAGTAAACAAATTTTCCTAATCTTTCTGTTCAAGCGCCATCTAC”, the binding signal is 0.852 RPM ratio (pull-down/input).
For the sequence “GATGATTGTTCTCCCAGCTGATGAATTCTTTAAATCGAGTAAACAAATTTTCCTAATCTTTCTGTTCAAGCGCCATCTAC”, the binding signal is 0.933 RPM ratio (pull-down/input).
In the case of “GATGATTGTTCTCCCAGCTGATGAATTTCGAGCTTCGAGTAAACAAATTTTCCTAATCTTTCTGTTCAAGCGCCATCTAC”, the binding signal is 0.792 RPM ratio (pull-down/input).
For “GATGATTGTTCTCCCAGCTGATGAATTTCCTGGTTCGAGTAAACAAATTTTCCTAATCTTTCTGTTCAAGCGCCATCTAC” the value was 0.781 RPM ratio (pull-down/input); for “GATGATTGTTCTCCCAGCTGATGAATTACCGCTGTCGAGTAAACAAATTTTCCTAATCTTTCTGTTCAAGCGCCATCTAC”, 0.991 RPM ratio (pull-down/input).
For “GATGATTGTTCTCCCAGCTGATGAATTGAAAGGCTCGAGTAAACAAATTTTCCTAATCTTTCTGTTCAAGCGCCATCTAC” the value was 0.86 RPM ratio (pull-down/input).
On to “GATGATTGTTCTCCCAGCTGATGAATTACATACTTCGAGTAAACAAATTTTCCTAATCTTTCTGTTCAAGCGCCATCTAC”, for which the binding signal is 1.2 RPM ratio (pull-down/input).
In the case of “GATGATTGTTCTCCCAGCTGATGAATTAGGCCGATCGAGTAAACAAATTTTCCTAATCTTTCTGTTCAAGCGCCATCTAC”, the binding signal is 0.874 RPM ratio (pull-down/input).
Take “GATGATTGTTCTCCCAGCTGATGAATTGGAACGGTCGAGTAAACAAATTTTCCTAATCTTTCTGTTCAAGCGCCATCTAC”: the binding signal was 0.837 RPM ratio (pull-down/input).
Take “GATGATTGTTCTCCCAGCTGATGAATTCTCGAGCTCGAGTAAACAAATTTTCCTAATCTTTCTGTTCAAGCGCCATCTAC”: the binding signal is 0.719 RPM ratio (pull-down/input).
For the sequence “GATGATTGTTCTCCCAGCTGATGAATTGACTACGTCGAGTAAACAAATTTTCCTAATCTTTCTGTTCAAGCGCCATCTAC”, the binding signal was 1.04 RPM ratio (pull-down/input).
For “GATGATTGTTCTCCCAGCTGATGAATTTACGGAGTCGAGTAAACAAATTTTCCTAATCTTTCTGTTCAAGCGCCATCTAC” the value was 1.01 RPM ratio (pull-down/input).
For “GATGATTGTTCTCCCAGCTGATGAATTCACTACCTCGAGTAAACAAATTTTCCTAATCTTTCTGTTCAAGCGCCATCTAC” the value was 0.869 RPM ratio (pull-down/input); for “GATGATTGTTCTCCCAGCTGATGAATTGGGGGATTCGAGTAAACAAATTTTCCTAATCTTTCTGTTCAAGCGCCATCTAC”, 0.811 RPM ratio (pull-down/input); for “GATGATTGTTCTCCCAGCTGATGAATTCAAACCCTCGAGTAAACAAATTTTCCTAATCTTTCTGTTCAAGCGCCATCTAC”, 0.816 RPM ratio (pull-down/input).
Regarding “GATGATTGTTCTCCCAGCTGATGAATTATCAGGTTCGAGTAAACAAATTTTCCTAATCTTTCTGTTCAAGCGCCATCTAC”, the binding signal is 0.891 RPM ratio (pull-down/input).
Regarding “GATGATTGTTCTCCCAGCTGATGAATTCTGTAGATCGAGTAAACAAATTTTCCTAATCTTTCTGTTCAAGCGCCATCTAC”, the binding signal is 0.926 RPM ratio (pull-down/input).
